Source: publication PMC10920779, “Targeting P2Y14R protects against necroptosis of intestinal epithelial cells through PKA/CREB/RIPK1 axis in ulcerative colitis” (Nature Communications, 2024)
“And” between values parts separate entries of the source, which are not always exact repeats. Equal entries are not always repeated. Where two headings read alike, the source gives them in different places. One block for each molecule: values may come before it.

Key:
intestinal organoids = test: TSZ-induced necroptosis in intestinal organoids (PI staining); format: cell-based, mouse; conditions: for Protection of P2Y14R deficiency against TSZ-mediated necroptosis: P2Y14R△IEC organoids, pre-treated
Procedure: Crypts were released from the murine small intestine by incubation for 30 min at 4°C in PBS containing 2 mM EDTA. Isolated crypts were counted and pelleted. […] Organoid media were changed every 3 days. […] Dead cell imaging in live organoids was performed on the fluorescence microscope (BX53, Olympus Optical), and analyzed by image j.

Ripk1 mRNA [1] = test: RT-PCR of Ripk1 mRNA in HT-29 cells; format: cell-based, human; conditions: for Ripk1 mRNA level: siP2Y14R HT-29 cells + TSZ
Source text: (§1) Total RNA was extracted from cells or colonic tissues using Trizol (Thermo) under the manufacturer’s instructions. First strand cDNA was synthesized using the PrimeScript RT Reagent Kit (480, Abm). SYBR Green Master Mix reagents (Q331-02, Vazyme) and primer mixtures (Table S1) were used for the real-time PCR. […] The procedure was as described in the kit provided by the manufacturer. Briefly, isolated IECs were fixed by 1% formaldehyde, and fragmented by sonication. CREB was then used for immunoprecipitation. After washing and reverse-crosslinking, the precipitated DNA was amplified by primers and quantified by the qPCR. Primer sequences can be found in Supplementary Table 1.

HT-29 cells = test: TSZ-induced necroptosis in HT-29 cells (CCK8 viability, PI/Hoechst, H&E staining); format: cell-based, human; conditions: for siP2Y14R-derived protection against TSZ-stimulated necroptosis: siP2Y14R HT-29 cells
Procedure: (§2) Necroptosis was induced by pretreatment with TNF‐α (20 ng·mL^−1) plus z‐VAD‐fmk (20 μM) and Smac mimetic (BV6, 2 μM) for 8 h, then stained cells with hematoxylin/eosin. For PI/Hoechst staining, cells were stained with PI and Hoechst for 20 min, then photographed with a fluorescence microscope and at least 300 cells were counted. The ratio of PI positive cells (%) = (PI positive cells) / (Hoechst positive cells) × 100%. For cell viability assay, CCK8 was added to the well and incubated for 1 − 2 h and then OD450 was measured using a multi-mode microplate reader (Cytation5, BioTek).

Ripk1 mRNA [2] = test: RT-PCR of Ripk1 mRNA in HCT-116 cells; format: cell-based, human; conditions: for Ripk1 mRNA level: siP2Y14R HCT-116 cells + TSZ
Source text: as §1

HCT-116 cells = test: TSZ-induced necroptosis in HCT-116 cells (PI/Hoechst staining); format: cell-based, human; conditions: for siP2Y14R-derived protection against TSZ-induced necroptosis: P2Y14R silencing HCT-116 cells, pre-treatment
Procedure: as §2

RIPK1 = RIPK1 protein half-life experiment with cycloheximide in HT-29 cells (western blot); format: cell-based, human; conditions: within 6 hours of treatment
Procedure: mRNA in siP2Y14R cells (Fig.#3 c-d.). Besides, UDPG treatment promoted the transcript of Ripk1, […]
Tunel staining and primer sequence have been included in the method section and Supplementary table 1 of the revised manuscript.
Fig.#3 a. The mRNA level of Ripk1 in siP2Y14R or P2Y14R-OE HT-29 cel ls treated DMSO (Veh), or TSZ was analyzed by RT-PCR. b. The mRNA level of Ripk1 in siP2Y14R or P2Y14R-OE HCT-116 cells treated with Veh or TSZ was analyzed by RT-PCR. c. The mRNA level of Ripk1 in siP2Y14R HT-29 cells treated with Veh, TSZ, TSZ+SQ22536, TSZ + H-89 or TSZ + 666-15 was analyzed by RT-PCR. d. The mRNA level of Ripk1 in siP2Y14R HCT-116 cells treated with Veh, TSZ, TSZ+SQ22536, TSZ + H-89 or TSZ + 666-15 was analyzed by RT-PCR. e. The mRNA level of Ripk1 in HT-29 cells treated with Veh, TSZ, UDPG, TSZ+UDPG, TSZ+UDPG+Nec-1 or TSZ+UDPG+GSK’872 was analyzed by RT-PCR. f. The mRNA level of Ripk1 in HCT-116 cells treated with Veh, TSZ, UDPG, TSZ+UDPG, TSZ+UDPG+Nec-1 or TSZ+UDPG+GSK’872 was analyzed by RT-PCR. The data represent the mean ± SD, and One-way analysis of variance […]
of approximately 60-70% of the initial RIPK1 level. Although, a sizable fraction of the initial RIPK1 […]
Fig.#4 The expression of RIPK1 in HT-29 cells 0 hours, 1.5 hours, 3 hours, 6 hours, 12 hours and 24 hours after cycloheximide (CHX) treatment was analyzed by western bolt. […]

P2Y14R = target: T1, P2Y14R (Homo sapiens, UniProt Q15391); test: cAMP production assay for P2Y14R antagonistic activity in P2Y14-HEK293 cells
T1 sequence (Q15391 1-338): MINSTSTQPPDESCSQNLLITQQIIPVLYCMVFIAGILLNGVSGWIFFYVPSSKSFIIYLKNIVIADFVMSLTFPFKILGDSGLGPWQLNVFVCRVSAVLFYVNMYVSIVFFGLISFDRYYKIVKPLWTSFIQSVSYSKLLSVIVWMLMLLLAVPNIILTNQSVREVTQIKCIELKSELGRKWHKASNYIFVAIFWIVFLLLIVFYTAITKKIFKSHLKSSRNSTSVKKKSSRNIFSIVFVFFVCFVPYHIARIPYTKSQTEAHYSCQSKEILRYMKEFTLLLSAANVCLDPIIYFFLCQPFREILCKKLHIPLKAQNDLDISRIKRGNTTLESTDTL

[3] = tested on: CREB binding to Ripk1 promoter; test: ChIP-qPCR with anti-CREB on Ripk1 gene promoter in HCT-116 cells; format: cell-based, human; conditions: UDPG+TSZ, pre-treatment
Source text: as §1

[4] = tested on: PKA and CREB phosphorylation; test: Immunoblotting of p-PKA and p-CREB in HCT-116 cells; format: cell-based, human; conditions: UDPG+TSZ
Procedure: (§3) Tissues and cells were lysed using RIPA lysis buffer (Beyotime Biotechnology) containing protease and phosphatase inhibitor, homogenated, and centrifuged. The protein concentration was determined by BCA protein assay (Beyotime Biotechnology). Equal concentrations of proteins were separated in a 10% SDS-PAGE and transferred to PVDF membrane. […] Densitometry was quantified using ImageJ software.

[5] = tested on: PKA and CREB phosphorylation; test: Immunoblotting of p-PKA and p-CREB in HT-29 cells; format: cell-based, human; conditions: UDPG+TSZ
Procedure: as §3

[6] = tested on: CREB binding to Ripk1 promoter; test: ChIP-qPCR with anti-CREB on Ripk1 gene promoter in HT-29 cells; format: cell-based, human; conditions: UDPG+TSZ, pre-treatment
Source text: as §1

[7] = read-out: In vitro P2Y14R affinity (IC50), Supplementary Table 2, compounds 5a-5i

SMILES: O=S(=O)(NCCNC/C=C/c1ccc(Br)cc1)c1cccc2cnccc12 [H-89]
- Protection of P2Y14R deficiency against TSZ-mediated necroptosis (intestinal organoids): disrupted the improvement of P2Y14R deficiency on TSZ-mediated necroptosis
- Ripk1 mRNA level (Ripk1 mRNA [1]): greatly up-regulated the level of Ripk1
- siP2Y14R-derived protection against TSZ-stimulated necroptosis (HT-29 cells): disrupted the siP2Y14R-derived protective effect on TSZ-stimulated necroptosis
- Ripk1 mRNA level (Ripk1 mRNA [2]): greatly up-regulated the level of Ripk1
- siP2Y14R-derived protection against TSZ-induced necroptosis (HCT-116 cells): disrupted the protective effect

SMILES: C[C@@H]1C[C@@H]([C@H](O)CC2CC(=O)NC(=O)C2)C(=O)[C@@H](C)C1 [cycloheximide]
- Decrease of the initial RIPK1 level (RIPK1): 60-70%

SMILES: c1ccc(NCc2nc3ccccc3o2)cc1 [5a]
- IC50 (P2Y14R; [7]): 5.36 nM

SMILES: Brc1ccccc1NCc1nc2ccccc2o1 [5e]
- IC50 (P2Y14R; [7]): 5.12 nM

- IC50 (P2Y14R): 25.4 nM
SMILES: Cn1c(CNc2ccccc2)nc2ccccc21 [D4]

SMILES: Clc1ccc(NCc2nc3ccccc3o2)cc1 [5f]
- IC50 (P2Y14R; [7]): 1.26 nM

SMILES: Brc1ccc(NCc2nc3ccccc3o2)cc1 [5i]
- IC50 (P2Y14R; [7]): 13.3 nM

SMILES: Cc1ccc(NCc2nc3ccccc3o2)cc1 [5h]
- IC50 (P2Y14R; [7]): 2.74 nM

SMILES: COc1cccc(NCc2nc3ccccc3o2)c1 [5d]
- IC50 (P2Y14R; [7]): 2.46 nM

SMILES: Nc1ncnc2c1ncn2C1CCCO1 (stereo not drawn) [SQ22536]
- Protection of P2Y14R deficiency against TSZ-mediated necroptosis (intestinal organoids): disrupted the improvement of P2Y14R deficiency on TSZ-mediated necroptosis
- Ripk1 mRNA level (Ripk1 mRNA [1]): greatly up-regulated the level of Ripk1
- siP2Y14R-derived protection against TSZ-stimulated necroptosis (HT-29 cells): disrupted the siP2Y14R-derived protective effect on TSZ-stimulated necroptosis
- Ripk1 mRNA level (Ripk1 mRNA [2]): greatly up-regulated the level of Ripk1
- siP2Y14R-derived protection against TSZ-induced necroptosis (HCT-116 cells): disrupted the protective effect

SMILES: Brc1cccc(NCc2nc3ccccc3o2)c1 [5b]
- IC50 (P2Y14R; [7]): 0.33 nM

SMILES: COc1ccc(NCc2nc3ccccc3o2)cc1 [5g]
- IC50 (P2Y14R; [7]): 7.78 nM

SMILES: CC(C)S(=O)(=O)c1ccc2nccc(Nc3ccc4scnc4c3)c2c1 [GSK'872]
- PI positive (%) (HT-29 cells; P2Y14R-OE cells + TSZ, replicates, supplement Figure 2c): 19.4151% and 12.3349% and 11.6079%

SMILES: CC(C)S(=O)(=O)c1ccc2nccc(Nc3ccc4scnc4c3)c2c1 [GSK’872]
- Decrease of binding between CREB and Ripk1 promoter (ChIP) [3]: did not affect this process
- UDPG-increased TSZ necroptosis in organoids (intestinal organoids; P2Y14Rfl/fl organoids, UDPG+TSZ): remarkably attenuated this damage
- Ripk1 transcript (mRNA) (Ripk1 mRNA [1]; HT-29 cells, UDPG+TSZ, pre-treatment): showed no effect
- UDP-glucose derived damage on TSZ-stimulated necroptosis (HT-29 cells; HT-29 cells, UDPG+TSZ): remarkably attenuated the UDP-glucose derived damage on TSZ-stimulated necroptosis
- TSZ-stimulated necroptosis (HT-29 cells; P2Y14R-overexpression HT-29 cells, 1h pre-treatment, TSZ 8 h): alleviated TSZ stimulated IECs necroptosis
- Phosphorylation level of PKA/CREB pathway [4]: did not affect the phosphorylation level of PKA/CREB pathway
- Phosphorylation level of PKA/CREB pathway [5]: did not affect the phosphorylation level of PKA/CREB pathway
- Ripk1 transcript (mRNA) (Ripk1 mRNA [2]; HCT-116 cells, UDPG+TSZ, pre-treatment): showed no effect
- UDP-glucose derived damage on TSZ-stimulated necroptosis (HCT-116 cells; HCT-116 cells, UDPG+TSZ): remarkably attenuated the UDP-glucose derived damage on TSZ-stimulated necroptosis
- TSZ-stimulated necroptosis (HCT-116 cells; P2Y14R-overexpression HCT-116 cells, pre-treated): alleviated this phenomenon
- Decrease of binding between CREB and Ripk1 promoter (ChIP) [6]: did not affect this process

SMILES: Clc1cccc(NCc2nc3ccccc3o2)c1 [5c]
- IC50 (P2Y14R; [7]): 12.4 nM
